Assay results: publication PMC4242493
The list shows a part of the results. The list includes weakly bound sequences.

Molecular target: MaxL homodimer (UniProt P61244)
Test: universal protein-binding microarray (PBM)
Settings: PBS-based mixture, 10 nM His-tagged protein dimer, 2% milk, 200 ng/uL BSA, 50 ng/uL salmon testes DNA, 0.02% TX-100; detection with Alexa 488 anti-His …; high values mean tight binding; most listed sequences are background and not binding sites; double strand, one strand shown

Chain of UniProt P61244 (P61244 whole entry): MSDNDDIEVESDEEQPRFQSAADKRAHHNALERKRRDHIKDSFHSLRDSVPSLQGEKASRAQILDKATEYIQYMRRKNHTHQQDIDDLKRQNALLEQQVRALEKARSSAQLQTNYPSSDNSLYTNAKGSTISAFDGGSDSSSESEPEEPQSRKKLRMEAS

Sequence | binding signal (normalized occupancy)
GGCTAGGA | 0.0751
CGCATTGA | 0.0827
ACTTAGTG | 0.0757
AGCCGGCT | 0.0646
GACTGCAA | 0.0713
TCAAACAA | 0.0729
ATTATGGA | 0.0819
ATCAGGGA | 0.0797
CAGGGAAA | 0.0787
CATACCGC | 0.0785
ACACAGAC | 0.066
AAGGAAAT | 0.0758
GCAAACAA | 0.0743
AGGCGTCG | 0.0733
GCACACCA | 0.0833
TGGTCACA | 0.0774
ATGCCATA | 0.0896
AAAGTATG | 0.0812
TCAGGACA | 0.0701
AAGTTATA | 0.0801
ACCTAGAT | 0.0775
ATCACAAT | 0.0804
GGACAGCA | 0.0752
GCCAACCA | 0.0739
GCTCACAA | 0.0762

Sequence | binding signal (normalized occupancy)
ATCTACAT | 0.0805
ACGTTTTG | 0.0854
CATTGTTC | 0.0759
ATCAGCGC | 0.0713
CGACGCGC | 0.0703
CGAGCTAA | 0.0651
AAGATTGC | 0.0705
GCCCTGGA | 0.0665
GGAGGTAA | 0.0778
CGGGCCTA | 0.0655
CGTCATTA | 0.0727
AAAGATAC | 0.076
GTACGCAC | 0.0758
ACTATTAG | 0.0773
ATCGTAAA | 0.0783
GCAAGAAC | 0.0722
ATGAAAAC | 0.0752
CGCCTTGA | 0.0753
ACTAGCAT | 0.0816
AAACTAAA | 0.0726
AGATAGCT | 0.0718
AGTATACA | 0.077
AGACTGCC | 0.0681
CGTTCAAA | 0.074
AGGAACTA | 0.0735

Sequence | binding signal (normalized occupancy)
ATGCGCAT | 0.102
AGAATTGA | 0.0733
CTGCATTA | 0.0722
GTCTATTA | 0.0784
CCGCCCCA | 0.0757
AAGGTCCT | 0.0739
ACGACGCT | 0.0756
TAGCAAGA | 0.0771
AACACGGC | 0.069
GGTGCATA | 0.0776
ATATTTCG | 0.072
CTAGCAAA | 0.0723
ATACTCCC | 0.0785
ACGATACT | 0.0795
TCCTAGAA | 0.0733
CGTTTTCA | 0.0841
TACATGAA | 0.0793
CAATTTAC | 0.0751
CCACCTGC | 0.0984
AGTGGCCC | 0.0692
ATGGTTTC | 0.0765
GCGGAAAC | 0.0684
GTCGAAAA | 0.0717
CTGAGTGC | 0.0731
ATACGTAG | 0.0785

Sequence | binding signal (normalized occupancy)
GGCTAGAC | 0.0679
ATACTAGA | 0.0749
AACACAGG | 0.0791
TAAAGCTA | 0.0691
CCCTAGGC | 0.0666
AAGCTGAG | 0.0726
TAGGGTAA | 0.0767
AACGATGA | 0.0771
ACGTTGAT | 0.0875
GGCAAACC | 0.0696
AGTGGCTC | 0.0728
AAAGCTGT | 0.067
CCACCCCA | 0.0887
CAGACGTA | 0.0724
GCGATTCC | 0.0814
AGCGACAC | 0.0794
CAATCGCA | 0.0778
TCCGAAGA | 0.0666
GCGGCGAA | 0.0666
TCTACACA | 0.0874
CCATTGTA | 0.0816
CTAACGTC | 0.0737
ACTAATAT | 0.0834
CAAGTCCA | 0.0739
CAAGGTAG | 0.0815

Sequence | binding signal (normalized occupancy)
CCTGCCAG | 0.0714
CGCCCGCG | 0.0691
AGTCCGAC | 0.0731
ACGGCGCG | 0.0694
CCTTTTCC | 0.0757
ACACTCTG | 0.0741
ACTGCCCT | 0.0694
CAAGGACG | 0.0685
GCCAGTGA | 0.0707
GTCGATCA | 0.0788
AGTGACAA | 0.0746
GCTCGCAC | 0.0715
AGCACGTG | 1
CGGGCTTA | 0.0706
ATTCGTCG | 0.0701
AACGTTAT | 0.0845
GAAGTCGA | 0.0711
AATTGCGT | 0.074
AGTTGGGC | 0.0684
AGAACATC | 0.0752
CAATTCTA | 0.0752
CCCCACGA | 0.0848
AAAAGTCT | 0.0708
TACGGACA | 0.0789
CTTGTAGA | 0.0769

Sequence | binding signal (normalized occupancy)
CACTTCAA | 0.0737
AATTTCTG | 0.071
CGTAAGCC | 0.0712
AAATGCCC | 0.0782
CGCAGAAA | 0.0699
AAACTATG | 0.0755
ATCGTATA | 0.0801
GGGAAGCA | 0.0776
GGGACACC | 0.068
AGTGCCCA | 0.0691
TAATGGAA | 0.0741
AGACGGAG | 0.064
ATGGAATG | 0.0796
AAAACCCT | 0.0749
AGTTAGTG | 0.0707
AGTTAGCG | 0.0747
CTATCGCC | 0.0752
CCCTCACA | 0.0772
TAGAAAAA | 0.0751
CTTTTAGC | 0.071
TAGGAACA | 0.076
AGCAACCT | 0.0778
GGCATAAA | 0.073
ACTGGTGC | 0.0749
TACGCCTA | 0.0755

Sequence | binding signal (normalized occupancy)
AACACGCT | 0.0974
CCCGTGAC | 0.0826
AAGAGAGC | 0.0672
ATCACTCC | 0.0714
GAACTTCA | 0.0701
AAGATGAC | 0.0738
GCCCGCGC | 0.0686
AATCTTCA | 0.072
CTCAACCC | 0.072
CGCACGGC | 0.0756
CTGGGCAC | 0.0695
ACGGCTAA | 0.0725
CAATATAC | 0.0795
CCGGCGAG | 0.0683
TACTCATA | 0.0778
GAAGCGGA | 0.0695
ACGGCGTG | 0.0958
AAGCTTCG | 0.0681
GCCGTCAC | 0.0701
TAGATATA | 0.0862
GGAAATAC | 0.0757
ACGTTGGG | 0.0801
